Paper PMC6855800
These are yes or no findings as the source states them, for the method shown. In cells and extracts the contact can be indirect. Some binding calls cover weakened binding; strength is not graded here.

Amino acid sequences for entries named in this document (tags omitted). A change or cut given only in a name is not applied to a line headed by its entry.
UniProt Q9QR71: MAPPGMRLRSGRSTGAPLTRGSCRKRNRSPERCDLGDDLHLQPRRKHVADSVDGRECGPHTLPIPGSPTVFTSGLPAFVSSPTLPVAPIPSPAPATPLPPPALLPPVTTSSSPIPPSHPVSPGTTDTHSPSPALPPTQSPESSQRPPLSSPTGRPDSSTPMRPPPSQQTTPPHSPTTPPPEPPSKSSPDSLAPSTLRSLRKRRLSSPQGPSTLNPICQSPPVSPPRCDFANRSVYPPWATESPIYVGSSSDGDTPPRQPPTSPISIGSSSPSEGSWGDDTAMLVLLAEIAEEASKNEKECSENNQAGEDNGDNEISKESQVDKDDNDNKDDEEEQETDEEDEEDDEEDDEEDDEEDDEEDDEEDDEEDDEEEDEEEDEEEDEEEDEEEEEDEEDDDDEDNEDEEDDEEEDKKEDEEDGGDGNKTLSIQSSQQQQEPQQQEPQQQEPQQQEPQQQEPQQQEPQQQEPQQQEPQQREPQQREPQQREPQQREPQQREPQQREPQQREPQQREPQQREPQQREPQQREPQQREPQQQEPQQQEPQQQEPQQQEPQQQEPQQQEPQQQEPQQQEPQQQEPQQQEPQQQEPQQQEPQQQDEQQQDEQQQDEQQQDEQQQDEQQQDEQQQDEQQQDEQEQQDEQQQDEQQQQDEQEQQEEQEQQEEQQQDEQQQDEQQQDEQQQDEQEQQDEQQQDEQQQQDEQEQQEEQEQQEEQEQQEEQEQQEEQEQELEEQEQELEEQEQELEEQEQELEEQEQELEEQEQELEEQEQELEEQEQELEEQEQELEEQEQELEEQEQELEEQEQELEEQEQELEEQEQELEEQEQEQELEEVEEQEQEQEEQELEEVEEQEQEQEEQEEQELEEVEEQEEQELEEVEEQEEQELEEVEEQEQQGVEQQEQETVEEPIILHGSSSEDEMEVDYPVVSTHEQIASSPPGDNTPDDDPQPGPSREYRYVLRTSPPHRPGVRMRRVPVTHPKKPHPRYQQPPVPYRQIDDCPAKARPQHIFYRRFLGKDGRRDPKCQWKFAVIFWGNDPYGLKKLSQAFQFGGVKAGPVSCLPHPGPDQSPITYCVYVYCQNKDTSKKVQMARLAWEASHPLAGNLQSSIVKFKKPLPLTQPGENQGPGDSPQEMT
UniProt Q13029: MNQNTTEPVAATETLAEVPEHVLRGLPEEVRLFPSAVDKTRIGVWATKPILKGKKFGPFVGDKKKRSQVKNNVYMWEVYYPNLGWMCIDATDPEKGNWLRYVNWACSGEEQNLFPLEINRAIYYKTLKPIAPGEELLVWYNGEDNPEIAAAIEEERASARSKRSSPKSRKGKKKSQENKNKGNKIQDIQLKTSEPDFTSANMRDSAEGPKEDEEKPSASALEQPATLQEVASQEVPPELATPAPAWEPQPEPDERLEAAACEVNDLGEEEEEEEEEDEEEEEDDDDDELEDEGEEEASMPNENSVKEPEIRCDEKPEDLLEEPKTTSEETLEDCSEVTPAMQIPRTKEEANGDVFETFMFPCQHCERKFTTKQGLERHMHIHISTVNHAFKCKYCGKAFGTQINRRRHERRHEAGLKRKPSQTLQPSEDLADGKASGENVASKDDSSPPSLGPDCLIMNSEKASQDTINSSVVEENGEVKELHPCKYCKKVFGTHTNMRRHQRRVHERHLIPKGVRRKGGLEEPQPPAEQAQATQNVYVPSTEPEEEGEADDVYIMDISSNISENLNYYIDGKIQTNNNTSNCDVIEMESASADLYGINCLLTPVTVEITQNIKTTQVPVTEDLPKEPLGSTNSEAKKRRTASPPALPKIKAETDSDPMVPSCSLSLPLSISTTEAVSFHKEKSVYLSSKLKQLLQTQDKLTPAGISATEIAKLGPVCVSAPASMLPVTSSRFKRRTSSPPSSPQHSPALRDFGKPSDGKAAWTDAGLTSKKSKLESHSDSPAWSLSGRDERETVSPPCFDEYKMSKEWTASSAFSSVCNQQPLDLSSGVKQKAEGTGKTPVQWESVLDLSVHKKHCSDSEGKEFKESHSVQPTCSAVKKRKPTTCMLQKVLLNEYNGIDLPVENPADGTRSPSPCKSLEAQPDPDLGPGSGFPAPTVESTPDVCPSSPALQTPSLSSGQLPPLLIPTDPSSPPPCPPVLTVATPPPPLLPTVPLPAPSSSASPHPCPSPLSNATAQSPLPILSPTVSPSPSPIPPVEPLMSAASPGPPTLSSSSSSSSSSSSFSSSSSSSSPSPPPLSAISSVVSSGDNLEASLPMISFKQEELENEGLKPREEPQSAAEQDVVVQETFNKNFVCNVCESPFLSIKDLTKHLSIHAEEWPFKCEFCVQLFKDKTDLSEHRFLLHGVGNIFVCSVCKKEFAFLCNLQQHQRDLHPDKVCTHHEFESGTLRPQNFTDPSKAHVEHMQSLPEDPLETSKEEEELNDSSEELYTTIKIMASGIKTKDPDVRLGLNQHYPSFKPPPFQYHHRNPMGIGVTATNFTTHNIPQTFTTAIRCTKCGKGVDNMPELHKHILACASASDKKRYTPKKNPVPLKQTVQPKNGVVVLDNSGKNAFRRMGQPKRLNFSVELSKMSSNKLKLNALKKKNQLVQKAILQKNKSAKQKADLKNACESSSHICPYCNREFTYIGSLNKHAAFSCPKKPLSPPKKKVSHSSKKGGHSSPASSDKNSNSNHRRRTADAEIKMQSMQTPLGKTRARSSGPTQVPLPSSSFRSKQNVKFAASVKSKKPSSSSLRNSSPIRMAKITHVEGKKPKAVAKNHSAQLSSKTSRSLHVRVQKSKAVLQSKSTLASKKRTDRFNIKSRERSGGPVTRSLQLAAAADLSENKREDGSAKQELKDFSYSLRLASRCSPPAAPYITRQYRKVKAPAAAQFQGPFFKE
UniProt Q9H5I1: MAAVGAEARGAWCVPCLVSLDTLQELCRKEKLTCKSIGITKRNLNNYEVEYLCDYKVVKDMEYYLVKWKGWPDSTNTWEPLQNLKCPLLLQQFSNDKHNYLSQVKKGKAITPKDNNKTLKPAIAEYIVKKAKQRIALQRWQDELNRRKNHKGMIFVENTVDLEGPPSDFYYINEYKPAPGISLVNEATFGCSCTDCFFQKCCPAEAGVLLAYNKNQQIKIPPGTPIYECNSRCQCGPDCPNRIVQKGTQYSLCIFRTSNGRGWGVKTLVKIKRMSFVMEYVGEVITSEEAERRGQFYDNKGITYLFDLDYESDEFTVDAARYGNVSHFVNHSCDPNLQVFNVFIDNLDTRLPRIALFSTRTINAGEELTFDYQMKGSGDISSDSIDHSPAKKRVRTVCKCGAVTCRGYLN
UniProt Q15910: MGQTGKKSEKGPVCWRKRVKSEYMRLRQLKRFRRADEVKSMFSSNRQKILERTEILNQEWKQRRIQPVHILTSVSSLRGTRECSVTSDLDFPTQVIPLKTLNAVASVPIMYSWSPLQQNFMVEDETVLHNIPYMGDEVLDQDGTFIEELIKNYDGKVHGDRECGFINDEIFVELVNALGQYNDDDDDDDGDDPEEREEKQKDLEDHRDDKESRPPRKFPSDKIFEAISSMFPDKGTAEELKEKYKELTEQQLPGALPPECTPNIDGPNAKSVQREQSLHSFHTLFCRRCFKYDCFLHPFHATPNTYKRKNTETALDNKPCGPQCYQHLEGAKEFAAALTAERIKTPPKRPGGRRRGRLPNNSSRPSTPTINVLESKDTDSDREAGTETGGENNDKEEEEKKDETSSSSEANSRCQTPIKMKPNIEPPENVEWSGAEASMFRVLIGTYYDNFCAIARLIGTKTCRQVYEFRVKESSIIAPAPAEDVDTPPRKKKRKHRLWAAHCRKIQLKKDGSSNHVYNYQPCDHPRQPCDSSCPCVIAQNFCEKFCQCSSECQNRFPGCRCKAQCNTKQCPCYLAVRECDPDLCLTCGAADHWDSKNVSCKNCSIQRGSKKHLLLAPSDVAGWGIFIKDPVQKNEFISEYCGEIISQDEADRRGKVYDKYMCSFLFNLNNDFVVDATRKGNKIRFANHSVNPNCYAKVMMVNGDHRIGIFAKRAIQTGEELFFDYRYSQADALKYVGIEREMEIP
UniProt Q9H9B1: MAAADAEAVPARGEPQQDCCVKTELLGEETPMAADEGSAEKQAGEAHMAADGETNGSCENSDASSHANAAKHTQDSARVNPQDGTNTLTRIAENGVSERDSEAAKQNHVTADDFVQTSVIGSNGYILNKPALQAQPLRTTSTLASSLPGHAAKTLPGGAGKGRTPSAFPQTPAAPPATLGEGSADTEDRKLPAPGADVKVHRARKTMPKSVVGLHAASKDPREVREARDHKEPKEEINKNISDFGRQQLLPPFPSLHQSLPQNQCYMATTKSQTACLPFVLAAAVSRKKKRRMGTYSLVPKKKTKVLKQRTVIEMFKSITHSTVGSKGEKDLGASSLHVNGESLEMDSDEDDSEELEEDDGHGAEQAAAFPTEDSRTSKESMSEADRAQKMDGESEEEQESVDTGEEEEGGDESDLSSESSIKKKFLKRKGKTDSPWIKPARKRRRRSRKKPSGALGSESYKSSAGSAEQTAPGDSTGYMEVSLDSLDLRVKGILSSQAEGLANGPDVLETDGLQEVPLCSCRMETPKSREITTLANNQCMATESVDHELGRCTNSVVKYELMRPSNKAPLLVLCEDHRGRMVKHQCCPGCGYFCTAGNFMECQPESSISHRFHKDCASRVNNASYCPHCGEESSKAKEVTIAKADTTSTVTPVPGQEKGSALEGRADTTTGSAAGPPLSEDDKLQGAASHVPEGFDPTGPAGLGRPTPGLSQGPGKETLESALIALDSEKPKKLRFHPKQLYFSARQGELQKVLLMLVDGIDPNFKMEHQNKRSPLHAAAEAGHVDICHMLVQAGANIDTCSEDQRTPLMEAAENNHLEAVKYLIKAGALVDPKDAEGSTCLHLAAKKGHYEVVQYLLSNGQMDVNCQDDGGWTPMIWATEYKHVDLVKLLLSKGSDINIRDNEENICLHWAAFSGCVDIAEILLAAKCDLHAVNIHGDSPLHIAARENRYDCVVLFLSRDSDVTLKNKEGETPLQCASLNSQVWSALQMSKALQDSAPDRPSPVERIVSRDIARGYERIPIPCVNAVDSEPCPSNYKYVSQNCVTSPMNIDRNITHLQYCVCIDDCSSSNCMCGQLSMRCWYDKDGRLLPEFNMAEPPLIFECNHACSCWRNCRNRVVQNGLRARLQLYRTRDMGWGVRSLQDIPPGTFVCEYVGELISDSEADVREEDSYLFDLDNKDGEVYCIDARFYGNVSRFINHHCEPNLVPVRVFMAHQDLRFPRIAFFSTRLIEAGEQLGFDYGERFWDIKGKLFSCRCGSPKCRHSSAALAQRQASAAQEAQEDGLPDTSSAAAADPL
UniProt Q16666: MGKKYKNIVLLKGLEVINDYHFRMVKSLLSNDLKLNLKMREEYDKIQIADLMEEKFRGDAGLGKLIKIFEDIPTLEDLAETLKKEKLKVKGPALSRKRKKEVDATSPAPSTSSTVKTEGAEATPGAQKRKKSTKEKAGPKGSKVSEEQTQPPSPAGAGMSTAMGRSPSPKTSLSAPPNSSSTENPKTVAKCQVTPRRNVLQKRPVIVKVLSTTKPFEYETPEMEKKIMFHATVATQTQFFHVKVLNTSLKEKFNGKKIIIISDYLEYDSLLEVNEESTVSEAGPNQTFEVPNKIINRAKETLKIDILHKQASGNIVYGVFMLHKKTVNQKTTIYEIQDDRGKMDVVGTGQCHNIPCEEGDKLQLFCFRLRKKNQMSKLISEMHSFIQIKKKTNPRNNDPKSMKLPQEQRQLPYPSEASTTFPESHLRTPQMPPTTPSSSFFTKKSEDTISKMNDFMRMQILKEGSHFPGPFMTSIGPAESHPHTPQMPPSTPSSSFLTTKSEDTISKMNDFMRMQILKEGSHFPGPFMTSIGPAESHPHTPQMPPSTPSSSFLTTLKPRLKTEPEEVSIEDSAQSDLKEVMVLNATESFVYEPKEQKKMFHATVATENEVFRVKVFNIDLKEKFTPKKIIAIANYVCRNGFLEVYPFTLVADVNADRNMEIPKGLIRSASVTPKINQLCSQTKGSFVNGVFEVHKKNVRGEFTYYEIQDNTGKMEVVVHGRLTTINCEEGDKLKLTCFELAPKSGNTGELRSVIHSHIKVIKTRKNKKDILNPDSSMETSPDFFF
UniProt P45973: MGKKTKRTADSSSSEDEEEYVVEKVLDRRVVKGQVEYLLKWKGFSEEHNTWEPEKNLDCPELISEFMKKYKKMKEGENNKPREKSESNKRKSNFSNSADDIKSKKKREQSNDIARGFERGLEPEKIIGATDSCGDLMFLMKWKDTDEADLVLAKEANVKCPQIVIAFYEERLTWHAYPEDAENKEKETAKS
UniProt Q9ULZ3: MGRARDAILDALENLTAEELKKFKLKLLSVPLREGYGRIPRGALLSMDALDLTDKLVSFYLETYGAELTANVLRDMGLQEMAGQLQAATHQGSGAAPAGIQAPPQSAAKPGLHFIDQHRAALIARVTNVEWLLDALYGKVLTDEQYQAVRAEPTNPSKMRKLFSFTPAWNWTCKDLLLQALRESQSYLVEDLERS

How the values were obtained:
[1] = molecular target: LANA1, a KSHV latent protein (Kaposi's sarcoma associated herpesvirus (KSHV)) (UniProt Q9QR71); experiment: co-IP; IP with anti-IFI16 mAb or anti-LANA antibody from benzonase-treated nuclear fractions of BCBL-1, BC-3 and BJAB cells; Protein A/G sepharose, overnight 4°C; wash 150 mM NaCl, 1% Triton X-100; western blot
[2] = molecular target: T1, Suppressor of variegation 3–9 homolog 1 (SUV39H1) (human (endogenous in BCBL-1, BC-3, BJAB, TIME, 293T)) (UniProt O43463); experiment: co-IP; reverse co-IP: IP with antibodies against the H3K9 MTases (and EZH2) from nuclear fractions of BCBL-1, BC-3 and BJAB cells; blotted for the MTase, IFI16, LANA and HP1α
T1 sequence: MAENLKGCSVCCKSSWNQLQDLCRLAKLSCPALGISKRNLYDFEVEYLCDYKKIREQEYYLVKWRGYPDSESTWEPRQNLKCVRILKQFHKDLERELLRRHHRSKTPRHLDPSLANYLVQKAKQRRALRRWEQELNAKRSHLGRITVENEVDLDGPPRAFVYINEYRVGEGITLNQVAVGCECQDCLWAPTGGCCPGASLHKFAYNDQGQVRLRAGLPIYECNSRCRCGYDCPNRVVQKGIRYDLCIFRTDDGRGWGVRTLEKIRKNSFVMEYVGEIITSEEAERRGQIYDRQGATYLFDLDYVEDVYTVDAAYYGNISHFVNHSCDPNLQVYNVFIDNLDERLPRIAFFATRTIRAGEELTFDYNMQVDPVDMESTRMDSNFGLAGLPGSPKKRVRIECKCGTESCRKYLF

[3] = molecular target: RIZ1 (human (endogenous in BCBL-1, BC-3, BJAB, TIME, 293T)) (UniProt Q13029); experiment: as above
[4] = molecular target: T2, SETDB2 (human (endogenous in BCBL-1, BC-3, BJAB, TIME, 293T)) (UniProt Q96T68); experiment: as above
T2 sequence: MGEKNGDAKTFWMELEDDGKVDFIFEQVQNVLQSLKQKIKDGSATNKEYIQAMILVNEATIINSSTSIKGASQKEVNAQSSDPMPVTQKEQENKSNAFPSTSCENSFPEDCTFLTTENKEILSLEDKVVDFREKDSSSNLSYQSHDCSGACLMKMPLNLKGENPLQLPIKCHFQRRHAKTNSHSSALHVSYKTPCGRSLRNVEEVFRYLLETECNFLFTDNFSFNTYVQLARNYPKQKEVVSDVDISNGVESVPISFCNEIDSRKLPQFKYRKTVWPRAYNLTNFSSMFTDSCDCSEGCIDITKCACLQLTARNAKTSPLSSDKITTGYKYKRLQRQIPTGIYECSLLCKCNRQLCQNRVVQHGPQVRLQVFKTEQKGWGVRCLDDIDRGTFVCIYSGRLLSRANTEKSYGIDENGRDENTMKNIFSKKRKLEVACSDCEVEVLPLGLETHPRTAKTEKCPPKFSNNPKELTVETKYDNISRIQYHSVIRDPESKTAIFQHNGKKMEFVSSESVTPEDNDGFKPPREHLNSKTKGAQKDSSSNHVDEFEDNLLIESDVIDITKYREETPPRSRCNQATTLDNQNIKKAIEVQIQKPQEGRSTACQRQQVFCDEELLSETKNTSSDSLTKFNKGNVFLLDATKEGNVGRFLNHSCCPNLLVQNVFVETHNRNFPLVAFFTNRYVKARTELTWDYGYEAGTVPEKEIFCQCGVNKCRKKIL

[5] = molecular target: SUV39H2 (human (endogenous in BCBL-1, BC-3, BJAB, TIME, 293T)) (UniProt Q9H5I1); experiment: as above
[6] = molecular target: EZH2 (H3K27 methylating PRC2 complex protein) (human (endogenous in BCBL-1, BC-3, BJAB, 293T)) (UniProt Q15910); experiment: as above
[7] = molecular target: G9A (human (endogenous in BCBL-1, BC-3, BJAB, TIME, 293T)) (UniProt Q96KQ7); experiment: as above
[8] = molecular target: G9a-like protein (GLP) (human (endogenous in BCBL-1, BC-3, BJAB, TIME, 293T)) (UniProt Q9H9B1); experiment: as above
[9] = molecular target: G9a-like protein (GLP) (human (endogenous in BCBL-1, BC-3, BJAB, TIME, 293T)) (UniProt Q9H9B1); experiment: co-IP; reverse co-IP: IP with antibodies against the MTases from TIME cells, uninfected or infected with KSHV for 6 or 24 hr; blotted for the MTase and IFI16
[10] = molecular target: T1, Suppressor of variegation 3–9 homolog 1 (SUV39H1) (human (endogenous in BCBL-1, BC-3, BJAB, TIME, 293T)); experiment: as above
[11] = molecular target: IFI16 (Interferon-γ-inducible protein 16) (human (endogenous in BCBL-1, BC-3, BJAB, TIME)) (UniProt Q16666); experiment: co-IP; IP with anti-IFI16 mAb or anti-LANA antibody from benzonase-treated nuclear fractions of BCBL-1, BC-3 and BJAB cells; Protein A/G sepharose, overnight 4°C; wash 150 mM NaCl, 1% Triton X-100; western blot
[12] = molecular target: IFI16 (Interferon-γ-inducible protein 16) (human (endogenous in BCBL-1, BC-3, BJAB, TIME)) (UniProt Q16666); experiment: proximity ligation; Duolink PLA in fixed TIME cells, uninfected or 24 hr after infection with EdU-labeled KSHV; anti-IFI16 with antibody to the H3K9 MTase; isotype IgG as control
[13] = molecular target: IFI16 (Interferon-γ-inducible protein 16) (human (endogenous in BCBL-1, BC-3, BJAB, TIME)) (UniProt Q16666); experiment: co-IP; IP with anti-IFI16 antibodies from benzonase-treated nuclear fractions of TIME cells, mock infected or infected with KSHV for 6 or 24 hr; western blot
[14] = molecular target: untagged IFI16 expressed ectopically in 293T cells (human) (UniProt Q16666); experiment: co-IP; 293T cells transfected with control, IFI16 or LANA plasmid for 72 hr; IP with anti-IFI16 mAb or LANA mAb; western blot
[15] = molecular target: LANA-1 expressed ectopically in 293T cells (pCI-neo full-length LANA-1) (Kaposi's sarcoma associated herpesvirus (KSHV)) (UniProt Q9QR71); experiment: as above

## heterochromatin protein 1-α (HP1α) (from UniProt P45973 1-191)
[1]
  binding: no binding
[2]
  binding: binds
[3]
  binding: no binding
[4]
  binding: binds
[5]
  binding: binds
[6]
  binding: binds

## LANA1, a KSHV latent protein (from UniProt Q9QR71 1-1129)
[7]
  binding: no binding
[8]
  binding: no binding
[2]
  binding: no binding
[3]
  binding: no binding
[4]
  binding: binds
[5]
  binding: no binding
[6]
  binding: binds

## IFI16 (Interferon-γ-inducible protein 16) (from UniProt Q16666 1-785)
[8]
  binding: binds
[2]
  binding: binds
[6]
  binding: no binding
[9]
  binding: binds
[10]
  binding: binds

## G9A (from UniProt Q96KQ7 1-1210) (enzyme)
[1]
  binding: no binding

## G9a-like protein (GLP) (from UniProt Q9H9B1 1-1298) (enzyme)
[11]
  binding: binds
[1]
  binding: no binding
[12]
  binding: binds
[13]
  binding: binds
[14]
  binding: binds

## SETDB2 (from UniProt Q96T68 1-719) (enzyme)
[1]
  binding: binds

## ASC (from UniProt Q9ULZ3 1-195)
[1]
  binding: no binding

## SUV39H2 (from UniProt Q9H5I1 1-410) (enzyme)
[1]
  binding: no binding

## RIZ1 (from UniProt Q13029-1 1-1718) (enzyme)
[1]
  binding: no binding

B1: Suppressor of variegation 3–9 homolog 1 (SUV39H1) (enzyme, UniProt O43463 1-412)
chain: T1 sequence
[11]
  binding: binds
[1]
  binding: no binding
[12]
  binding: binds
[13]
  binding: binds
[15]
  binding: no binding
[14]
  binding: binds
